Drawing on the RNAGym collection of RNA variant scans (doi:10.1093/nar/gkz1192), this text covers self-cleavage for 83 variants.

The source gives no read counts; variants with many changes may rest on few reads.

To fix the notation:
B1: CPEB3 Ribozyme (parent)
chain: UAACAGGGGGCCACAGCAGAAGCGUUCACGUCGCAGCCCCUGUCAGAUUCUGGUGAAUCUGCGAAUUCUGCUGUAUAUCUC

The variants in the data set derive from B1. Briefly: self-cleavage, relative activity (ratio to wild type); higher = more cleavage; in vitro, sequencing. The gist of the method:
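Relative activity compares each variant's cleaved/total read fraction with that of the unmutated ribozyme. To get these fractions, barcoded CPEB3 ribozyme libraries from rounds of error-prone PCR were transcribed with T7 RNA polymerase for 5 hours at 37°C and then given 15 min of DNase I treatment before EDTA was added. The RNAs were reverse transcribed with template switching and sequenced on Illumina, and DNA sequencing linked barcodes to variants. A minimum of 5 reads applied, and three batches were averaged.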
Regarding A5G A13U C68U U72A, the self-cleavage is 0.42.

For the variant A5G A21G C34G G36A A56G, the self-cleavage amounted to 0.07.

For the variant A5G A13C C40U A47C A56G U66C, the self-cleavage turned out to be 0.11.

As to A5C A20G U25A C39U G61C, the self-cleavage worked out at 0.09.

C4U A18G U26A A47G U58C U72C U76C: the self-cleavage was 0.61.

As to C4U C11G U41A, the self-cleavage is 0.45.

A5G A20G U48A U49C A57G: the self-cleavage was 0.34.

Regarding C4U G6A A75U U78C, the self-cleavage came to 0.52.

On to C4A A13U U58C G61A A64G U69A A77G, for which the self-cleavage was determined as 0.23.

For C4U U54C U67C, the self-cleavage amounted to 0.35.

For the variant A5G A13G A28C, the self-cleavage came to 0.39.

Consider A5G A18G A28G U69C, for which the self-cleavage was determined as 0.26.

For A5C U26G A35G U80C, the self-cleavage was found to be 0.65.

Consider A5C A13U A57G U58C A65U U66C, for which the self-cleavage was determined as 0.

In the case of A5C A18U A64U, the self-cleavage amounted to 0.17.

As to C4U G9A U31A, the self-cleavage stood at 0.09.

Regarding A5G A15U U26A U69C C81A, the self-cleavage was 0.09.

Take C4G G9A A20U: the self-cleavage amounted to 0.06.

With A3U C11U U31C U48C A65G, the self-cleavage was 0.06.

For the variant C4U G9U A15G A18U A64C, the self-cleavage amounted to 0.07.

Consider C4G A18G U31A A35U U60A U66A, for which the self-cleavage stood at 0.14.

A3U G7A A28U C32A U41C U51C A65C: the self-cleavage is 0.06.

A3U U31C C59G G73C: the self-cleavage worked out at 0.17.

As for A5G A13G G24A A45G U74C, the self-cleavage was found to be 0.47.

Regarding A3U U25C U43A A57C, the self-cleavage stood at 0.31.

A5G A18U C37A A64G U80C: the self-cleavage came to 0.07.

As for A5G A15C C62U, the self-cleavage was 0.58.

A5G A13C A15C U49C U72A: the self-cleavage stood at 0.22.

For the variant A5C G9A A20G U43A A45U, the self-cleavage was determined as 0.08.

For the variant A5G A21G C29U A77G U78C, the self-cleavage amounted to 0.07.

On to A5G A28G U54C G55U, for which the self-cleavage amounted to 0.32.

Consider A3U C29A C34A A56U, for which the self-cleavage stood at 0.26.

Take A5G A20U A77G: the self-cleavage was found to be 0.34.

With C4A A18G U51C, the self-cleavage was 0.87.

In the case of A5C C11A A15U A45C U60C, the self-cleavage came to 0.22.

Regarding A5G A15U A65C, the self-cleavage was determined as 0.5.

Regarding A3U G24A U25C A57G, the self-cleavage was 0.1.

For the variant C4U U25C C29U U51C A56U G61A A77G, the self-cleavage was 0.09.

Consider A5G A15G G24A, for which the self-cleavage was 0.53.

On to C4A G8A C71U U72C, for which the self-cleavage came to 0.13.

A5G A28G A35G: the self-cleavage is 0.71.

A5G A15G U72C U80A: the self-cleavage is 0.67.

As to A3U C11G A20G G24A A28G U31A C32U, the self-cleavage stood at 0.06.

Turning to C4U U31C A56G U80A, the self-cleavage was determined as 1.16.

Regarding A5G A21U A45C U69C, the self-cleavage was determined as 0.05.

Turning to A5C A28C U43C, the self-cleavage is 0.43.

In the case of C4G A13G A28C C37U U41A, the self-cleavage stood at 0.3.

In the case of C4U G36A U72A U80A, the self-cleavage stood at 0.35.

A3U G30U U54C A56G A64G: the self-cleavage is 0.18.

For A5C A18G A45G, the self-cleavage was found to be 0.65.

Regarding A5G A15G U66C, the self-cleavage amounted to 0.58.

Take C4U U31C A35U U58C C62A: the self-cleavage amounted to 0.15.

Regarding C4A A65G U67C, the self-cleavage was determined as 0.41.

Consider A3U G16A A64U U72C, for which the self-cleavage is 0.13.

On to A5G A15G A20G U54A U76C A77U, for which the self-cleavage came to 0.6.

For the variant A5G A15U A35G U41A G70C, the self-cleavage is 0.12.

On to A5G A13U A15G U54C, for which the self-cleavage was 0.52.

On to A3U C39A U60A, for which the self-cleavage was 0.39.

For A5G A13C A20G A47G U72C, the self-cleavage was determined as 0.4.

For the variant A3U G8U U60C U69C, the self-cleavage is 0.17.

Regarding A5G A20U A35G U60C, the self-cleavage was determined as 0.26.

On to A5G A15G A21G, for which the self-cleavage came out at 0.5.

With A5G A15U U41A A57G U67A, the self-cleavage worked out at 0.12.

Take A5G A13U U51C: the self-cleavage was found to be 0.72.

Regarding C4U A21G U31C, the self-cleavage is 0.47.

Consider A5G A21G A56G, for which the self-cleavage is 0.42.

Turning to A5G A21G C68A U69G, the self-cleavage stood at 0.14.

In the case of A5C A20U C37U A57G U67C U69A U76C, the self-cleavage came out at 0.14.

For the variant A5G A18C A35U U72C A75G U78A, the self-cleavage worked out at 0.17.

As to A3U U26C U43C U54C, the self-cleavage was 0.28.

Take A5G A15U A35G G70C: the self-cleavage worked out at 0.41.

Regarding A5G A18G A20G U49A, the self-cleavage is 0.45.

Consider A3U G10C G16A, for which the self-cleavage was 0.28.

On to A5G A15G U41C U78A, for which the self-cleavage turned out to be 0.54.

On to A3U U26C U66C, for which the self-cleavage is 0.36.

As to C4U A18U U48C A56G U80A, the self-cleavage is 0.21.

Consider A5G A13U A28U U49C, for which the self-cleavage amounted to 0.05.

As to A5G A15G A28G U69A, the self-cleavage is 0.46.

As for A5C A15G U48C U60C U72G G73A, the self-cleavage was 0.11.

For A5G A13G G24A U43A A65U, the self-cleavage amounted to 0.26.

Consider A5G A20G A21G U41A U54A U60C U67C, for which the self-cleavage came out at 0.12.

In the case of A5G A13G U31C C38A U49C G63U, the self-cleavage was found to be 0.07.

Turning to A5G A20U U51C, the self-cleavage worked out at 0.34.
